Data reported in patent publication US20110275559A1, “Long-Acting Y2 and/or Y4 Receptor Agonists” (Novo Nordisk A/S, priority 2008, published 2011).
At least one structure is not confirmed: it was looked up by name or label, or the drawing left a doubt. Marks after values point to notes of the source that are not given here. *1 amine or outer side, *2 acyl side, *3 side chain or, on linkers, in order; H or OH if unused. Where a SMILES comes first, the peptide text is derived from it. Side-chain parts run from the residue outwards. The star is where a group is joined. C20 diacid = O=C(O)CCCCCCCCCCCCCCCCCCC(=O)*; C18 diacid = O=C(O)CCCCCCCCCCCCCCCCC(=O)*; γGlu = O=C(O)[C@H](CCC(=O)[*:2])N[*:1]; Trx = NC[C@H]1CC[C@H](C(=O)O)CC1; AEEA = NCCOCCOCC(=O)O

Test system: lean C57BL/6 mice
Assay: Acute food intake in fasted lean mice (BioDAQ, fasting-induced refeeding)
Assay type: in vivo
Details: for period of statistical significant reduced cumulative food intake after injection: Study 6F
Method: Acute food intake in mice: Lean C57BL male mice are obtained from Charles River, Japan. They are maintained on a 12:12 light:dark cycle (lights off at 10:00 AM, lights on at 10:00 PM), fed pelleted D12450B rodent diet (Research Diets, Inc., New Brunswick, N.J.), and allowed water ad libitum. The mice arrive at 7-8 weeks of age and are acclimatized in the BioDAQ system a minimum of two weeks prior to study. On the day of study, mice are 9-12 weeks old. They are fasted overnight (20-24 h) with free access to water. The day of the study, mice are dosed with s.c. injection (dose volume=10 mL/kg), returned to their cage, and pre-weighed food is immediately placed in the cage. […] When the mice eat the weight reduction of the content of the food-tray is registered. Data is registered each time there is a change in the weight of the individual food-tray. Cumulative food intake is calculated by subtracting the food weight at each time point from the starting food weight.
Mice were administrated a single dose of the peptides (1 μmol/kg s.c.) 30 min before food return and cumulative food intake was measured over 24 h. […] One way ANOVA was carried for each time point out using the software Graph-Pad Prism, version 5.0. The statistical method used for the data in FIG. 1A was an unpaired t-test using the software Graph-Pad Prism, version 5.0. The statistical method used for the data in FIG. 1B and Table 4 was ANOVA, Dunnetts post hoc. Stars in FIGS. 1A and 1B indicate significance versus the vehicle group *) p<0.05, **) p<0.01, ***) p<0.001.
Studies were conducted to evaluate the acute effects of PP and PYY analogues on food intake compared to vehicle. Fasted lean C57BL/6 mice were administrated a single subcutaneous injection of vehicle or peptide approximately 30 min before food return and the cumulative food intake was measured subsequently. One way ANOVA was carried out for each time point using the software Graph-Pad Prism, version 5.0.

[1] = Table 10, Study 6F, mice, 1.0 μmol/kg s.c., 1 hour after injection, vehicle 0.38
[2] = Table 10, Study 6F, mice, 1.0 μmol/kg s.c., 2 hours after injection, vehicle 0.87
[3] = Table 10, Study 6F, mice, 1.0 μmol/kg s.c., 3 hours after injection, vehicle 1.23
[4] = Table 10, Study 6F, mice, 1.0 μmol/kg s.c., 4 hours after injection, vehicle 1.53
[5] = Table 10, Study 6F, mice, 1.0 μmol/kg s.c., 6 hours after injection, vehicle 2.05
[6] = Table 10, Study 6F, mice, 1.0 μmol/kg s.c., 8 hours after injection, vehicle 2.54
[7] = Table 10, Study 6F, mice, 1.0 μmol/kg s.c., 12 hours after injection, vehicle 3.21
[8] = Table 10, Study 6F, mice, 1.0 μmol/kg s.c., 24 hours after injection, vehicle 3.91
[9] = Table 10, Study 6F, mice, 1.0 μmol/kg s.c., 36 hours after injection, vehicle 7.29
[10] = Table 10, Study 6F, mice, 1.0 μmol/kg s.c., 48 hours after injection, vehicle 7.45

CC[C@H](C)[C@H](NC(=O)[C@H](Cc1ccc(O)cc1)NC(=O)[C@H](CCCNC(=N)N)NC(=O)[C@H](CCCNC(=N)N)NC(=O)[C@H](CC(C)C)NC(=O)[C@H](CC(=O)O)NC(=O)[C@H](C)NC(=O)[C@H](C)NC(=O)[C@H](Cc1ccc(O)cc1)NC(=O)[C@H](CCC(N)=O)NC(=O)[C@H](C)NC(=O)[C@H](CC(C)C)NC(=O)[C@H](CCC(N)=O)NC(=O)[C@H](CCC(=O)O)NC(=O)[C@@H]1CCCN1C(=O)[C@@H](NC(=O)[C@H](C)NC(=O)[C@H](CCCCNC(=O)COCCOCCNC(=O)COCCOCCNC(=O)CC[C@H](NC(=O)CCCCCCCCCCCCCCCCC(=O)O)C(=O)O)NC(=O)[C@H](CC(=O)O)NC(=O)CNC(=O)[C@@H]1CCCN1C(=O)[C@H](Cc1ccc(O)cc1)NC(=O)[C@@H](NC(=O)[C@@H]1CCCN1C(=O)[C@H](CCC(=O)O)NC(=O)[C@H](CC(C)C)NC(=O)[C@@H]1CCCN1)C(C)C)[C@@H](C)O)C(=O)N[C@@H](CC(N)=O)C(=O)N[C@@H](CC(C)C)C(=O)N[C@@H](CC(C)C)C(=O)N[C@H](C(=O)N[C@@H](CCCNC(=N)N)C(=O)N1CCC[C@H]1C(=O)N[C@@H](CCCNC(=N)N)C(=O)N[C@@H](Cc1ccc(O)cc1)C(N)=O)[C@@H](C)O [SEQ ID NO: 30, N-epsilon11-[2-(2-{2-[2-(2-{2-[(S)-4-Carboxy-4-(17-carboxyheptadecanoylamino)butyrylamino]ethoxy}ethoxy)acetylamino]-ethoxy}ethoxy)acetyl][Lys11,Leu17,Leu30]hPP2-36] (H-PLEPVYPGDK([AEEA-AEEA-γGlu-C18 diacid])ATPEQLAQYAADLRRYINLLTRPRY-NH2; N-terminus and C-terminus assumed)
Mean cumulative food intake (Table 5, Study 6A, fasted lean C57BL/6 mice, single 1.0 μmol/kg s.c., 4 hours after injection, vehicle 1.51): 1.21 g
Mean cumulative food intake [g] (Table 5, Study 6A, mice, 1.0 μmol/kg s.c., 6 hours after injection, vehicle 2.04): 1.50** g
Mean cumulative food intake [g] (Table 5, Study 6A, mice, 1.0 μmol/kg s.c., 8 hours after injection, vehicle 2.61): 1.78*** g
Mean cumulative food intake [g] (Table 5, Study 6A, mice, 1.0 μmol/kg s.c., 12 hours after injection, vehicle 3.49): 2.15*** g
Mean cumulative food intake [g] (Table 5, Study 6A, mice, 1.0 μmol/kg s.c., 24 hours after injection, vehicle 4.35): 3.44* g
Mean cumulative food intake [g] (Table 5, Study 6A, mice, 1.0 μmol/kg s.c., 36 hours after injection, vehicle 8.41): 6.13*** g
Mean cumulative food intake [g] (Table 5, Study 6A, mice, 1.0 μmol/kg s.c., 48 hours after injection, vehicle 8.87): 6.95* g

CC[C@H](C)[C@H](NC(=O)[C@H](Cc1ccc(O)cc1)NC(=O)[C@H](CCCNC(=N)N)NC(=O)[C@H](CCCNC(=N)N)NC(=O)[C@H](CC(C)C)NC(=O)[C@H](CC(=O)O)NC(=O)[C@H](C)NC(=O)[C@H](C)NC(=O)[C@H](Cc1ccc(O)cc1)NC(=O)[C@H](CCC(N)=O)NC(=O)[C@H](CCCCNC(=O)COCCOCCNC(=O)COCCOCCNC(=O)CC[C@H](NC(=O)[C@H]1CC[C@H](CNC(=O)CCCCCCCCCCCCCCCCCCC(=O)O)CC1)C(=O)O)NC(=O)[C@H](CC(C)C)NC(=O)[C@H](CCC(N)=O)NC(=O)[C@H](CCC(=O)O)NC(=O)[C@@H]1CCCN1C(=O)[C@@H](NC(=O)[C@H](C)NC(=O)[C@H](CC(N)=O)NC(=O)[C@H](CC(=O)O)NC(=O)CNC(=O)[C@@H]1CCCN1C(=O)[C@H](Cc1ccc(O)cc1)NC(=O)[C@@H](NC(=O)[C@@H]1CCCN1C(=O)[C@H](CCC(=O)O)NC(=O)[C@H](CC(C)C)NC(=O)[C@@H]1CCCN1)C(C)C)[C@@H](C)O)C(=O)N[C@@H](CC(N)=O)C(=O)N[C@@H](CC(C)C)C(=O)N[C@@H](CC(C)C)C(=O)N[C@H](C(=O)N[C@@H](CCCNC(=N)N)C(=O)N1CCC[C@H]1C(=O)N[C@@H](CCCNC(=N)N)C(=O)N[C@@H](Cc1ccc(O)cc1)C(N)=O)[C@@H](C)O [SEQ ID NO: 43, N-epsilon18-[2-(2-{2-[2-(2-{2-[(S)-4-Carboxy-4-({trans-4-[(19-carboxynonadecanoylamino)methyl]cyclohexanecarbonyl}amino)butyrylamino]-ethoxy}ethoxy)acetylamino]ethoxy}ethoxy)acetyl][Leu17,Lys18,Leu30]hPP2-36] (H-PLEPVYPGDNATPEQLK([AEEA-AEEA-γGlu-Trx-C20 diacid])QYAADLRRYINLLTRPRY-NH2; N-terminus and C-terminus assumed)
period of reduced cumulative food intake after injection (Study 6B, mice, 0.03 and 0.1 μmol/kg s.c., only 0.1 μmol/kg reached statistical significance): 4 to 12 h
period of statistical significant reduced cumulative food intake after injection (mice, 1.0 μmol/kg s.c.): 1 to 12 h
Mean cumulative food intake (Table 6, Study 6B, mice, 0.03 μmol/kg s.c., 1 hour after injection, vehicle 0.39): 0.46 g
Mean cumulative food intake (Table 6, Study 6B, mice, 0.03 μmol/kg s.c., 2 hours after injection, vehicle 0.80): 0.88 g
Mean cumulative food intake (Table 6, Study 6B, mice, 0.03 μmol/kg s.c., 3 hours after injection, vehicle 1.18): 1.25 g
Mean cumulative food intake (Table 6, Study 6B, mice, 0.03 μmol/kg s.c., 4 hours after injection, vehicle 1.47): 1.48 g
Mean cumulative food intake (Table 6, Study 6B, mice, 0.03 μmol/kg s.c., 6 hours after injection, vehicle 1.96): 1.66 g
Mean cumulative food intake (Table 6, Study 6B, mice, 0.03 μmol/kg s.c., 8 hours after injection, vehicle 2.18): 1.91 g
Mean cumulative food intake (Table 6, Study 6B, mice, 0.03 μmol/kg s.c., 12 hours after injection, vehicle 2.86): 2.50 g
Mean cumulative food intake (Table 6, Study 6B, mice, 0.1 μmol/kg s.c., 1 hour after injection, vehicle 0.39): 0.51 g
Mean cumulative food intake (Table 6, Study 6B, mice, 0.1 μmol/kg s.c., 2 hours after injection, vehicle 0.80): 0.82 g
Mean cumulative food intake (Table 6, Study 6B, mice, 0.1 μmol/kg s.c., 3 hours after injection, vehicle 1.18): 0.95 g
Mean cumulative food intake [g] (Table 6, Study 6B, mice, 0.1 μmol/kg s.c., 4 hours after injection, vehicle 1.47): 1.06* g
Mean cumulative food intake [g] (Table 6, Study 6B, mice, 0.1 μmol/kg s.c., 6 hours after injection, vehicle 1.96): 1.37** g
Mean cumulative food intake [g] (Table 6, Study 6B, mice, 0.1 μmol/kg s.c., 8 hours after injection, vehicle 2.18): 1.56** g
Mean cumulative food intake [g] (Table 6, Study 6B, mice, 0.1 μmol/kg s.c., 12 hours after injection, vehicle 2.86): 2.16* g
Mean cumulative food intake [g] [1]: 0.20** g
Mean cumulative food intake [g] [2]: 0.53** g
Mean cumulative food intake [g] [3]: 0.70*** g
Mean cumulative food intake [g] [4]: 0.89*** g
Mean cumulative food intake [g] [5]: 1.09*** g
Mean cumulative food intake [g] [6]: 1.24*** g
Mean cumulative food intake [g] [7]: 1.81*** g
Mean cumulative food intake [8]: 3.66 g
Mean cumulative food intake [9]: 6.42 g
Mean cumulative food intake [10]: 7.33 g

CC[C@H](C)[C@H](NC(=O)[C@H](Cc1ccc(O)cc1)NC(=O)[C@H](CCCCNC(=O)COCCOCCNC(=O)COCCOCCNC(=O)CC[C@H](NC(=O)CCCCCCCCCCCCCCCCC(=O)O)C(=O)O)NC(=O)[C@H](CCCNC(=N)N)NC(=O)[C@H](CC(C)C)NC(=O)[C@H](CC(=O)O)NC(=O)[C@H](C)NC(=O)[C@H](C)NC(=O)[C@H](Cc1ccc(O)cc1)NC(=O)[C@H](CCC(N)=O)NC(=O)[C@H](C)NC(=O)[C@H](CC(C)C)NC(=O)[C@H](CCC(N)=O)NC(=O)[C@H](CCC(=O)O)NC(=O)[C@@H]1CCCN1C(=O)[C@@H](NC(=O)[C@H](C)NC(=O)[C@H](CC(N)=O)NC(=O)[C@H](CC(=O)O)NC(=O)CNC(=O)[C@@H]1CCCN1C(=O)[C@H](Cc1ccc(O)cc1)NC(=O)[C@@H](NC(=O)[C@@H]1CCCN1C(=O)[C@H](CCC(=O)O)NC(=O)[C@H](CC(C)C)NC(=O)[C@@H]1CCCN1)C(C)C)[C@@H](C)O)C(=O)N[C@@H](CC(N)=O)C(=O)N[C@@H](CC(C)C)C(=O)N[C@@H](CC(C)C)C(=O)N[C@H](C(=O)N[C@@H](CCCNC(=N)N)C(=O)N1CCC[C@H]1C(=O)N[C@@H](CCCNC(=N)N)C(=O)N[C@@H](Cc1ccc(O)cc1)C(N)=O)[C@@H](C)O [SEQ ID NO: 46, N-epsilon26-[2-(2-{2-[2-(2-{2-[(S)-4-Carboxy-4-(17-carboxyheptadecanoylamino)butyrylamino]ethoxy}ethoxy)acetylamino]-ethoxy}ethoxy)acetyl][Leu17,Lys26,Leu30]hPP2-36] (H-PLEPVYPGDNATPEQLAQYAADLRK([AEEA-AEEA-γGlu-C18 diacid])YINLLTRPRY-NH2; N-terminus and C-terminus assumed)
period of statistical significant reduced cumulative food intake after injection (mice, 1.0 μmol/kg s.c.): 4 h
Mean cumulative food intake [1]: 0.30 g
Mean cumulative food intake [2]: 0.66 g
Mean cumulative food intake [3]: 0.98 g
Mean cumulative food intake [g] [4]: 1.20* g
Mean cumulative food intake [5]: 1.61 g
Mean cumulative food intake [6]: 2.07 g
Mean cumulative food intake [7]: 2.86 g
Mean cumulative food intake [8]: 3.89 g
Mean cumulative food intake [9]: 7.02 g
Mean cumulative food intake [10]: 7.37 g
